Data set [1] is described as follows: heat stability. To be noted: exposure to 80° C. for 10, 15, 30 and 60 minutes.
The nature of data set [2]: enzyme stability of the peptide (activity in AU/ml after enzyme treatment). The settings on record: partially purified peptide treated with RNase, DNase, lysozyme, lipase and α-amylase, compared to peptide in molecular water.

As for “peptide NI01: antimicrobial peptide (bacteriocin, SEQ ID NO:3) obtained from a Staphylococcal culture; C terminal sequence QSFEWIYKQIKKLWA (MAAFMKLIQFLATKGQKYVSLAWKHKGTILKWINAGQSFEWIYKQIKKLWA; NOI01 polypeptide)”, the activity retained in data set [1] is 100%. The “effect on activity of enzyme treatment” value in data set [2] is given as “no effect”.

These data come from patent US9428551B2, “Antimicrobial peptides” (priority 2009, dated 2016).
